In one experiment the test system is HaCat I5 keratinocytes. Kind of experiment: keratinocyte viability, Neutral red, HaCat I5. The format is cell-based, human. As for the experimental part:
(§1) The drugs were administered at concentrations within the range of 5-100 μM and cell viability was measured 24 hr post-administration by Neutral red staining. The efficiency of the agents against viability of the cell lines was evaluated also by comparison with two commonly used anticancer agents (Doxorubicin and 5-fluorouracil (5-FU)) at equimolar concentrations.

Another experiment concerns mouse lung sarcoma (3LL). As to the kind of experiment: cell viability, lung 3LL. The format is cell-based. The settings on record: Table 1B, read-out: Cell viability IC50 Lungs Sarcoma 3LL. As for the experimental part: In another experiment the effect of clotiapine at the same concentrations on the viability of mouse lung carcinoma (3LL) cells was determined.
(§2) Cyclic antidepressants at varying concentrations (between 10PM and 100 μM) was applied to neuroblastoma SH-SY5T, 3LL lung carcinoma, prostate (LN-CapAp), melanoma B16, and cell viability was determined as described above.

The test system of a further experiment is HaCat keratinocytes. As to the kind of experiment: keratinocyte viability, Neutral red, HaCat. Type of experiment: cell-based. Conditions: Homo sapiens. As for the experimental part: as §1
Experiment [1] relates to human prostate (LN-CapAp). Kind of experiment: cell viability, prostate LN-Cap. The format is cell-based. The settings on record: for IC50: Homo sapiens, LNCaP. As for the experimental part: The effect of trifluoperazine and flupentixol was studied in two cell-lines of human prostate cancer: androgen dependent (LN-Cap) and androgen independent (PC-3).
as §2

For experiment [2], the system named is mouse melanoma B16 MDR cells. Kind of experiment: cell viability, melanoma B16 MDR. The format is cell-based.
The test system of the next experiment is mouse melanoma (B-16). Kind of experiment: cell viability, melanoma B16. Type of experiment: cell-based. The settings on record: for IC50: Mus musculus. As for the experimental part: as §2
In another experiment the test system is different cell-lines. Kind of experiment: mean IC50 over cell lines and therapeutic index.
The subject of experiment [3] is human neuroblastoma (SH-SY5T). As to the kind of experiment: cell viability, neuroblastoma SH-SY5T. Conditions: for IC50: Homo sapiens. Type of experiment: cell-based. As for the experimental part: The effect of paroxetine on primary tissue cultures was also evaluated. […] The viability of the cells after treatment with paroxetine was determined by neutral red (NR) technology 24 hr. post treatment.
as §2

Experiment [4] relates to HaCat II-4RT keratinocytes. As to the kind of experiment: keratinocyte viability, Neutral red, HaCat II4. Type of experiment: cell-based. The settings on record: Homo sapiens. As for the experimental part:
as §1

In experiment [5] the test system is human neuroblastoma (SK-N-SH). As to the kind of experiment: cell viability (neutral red, Almar Blue, Hoechst dye), neuroblastoma SK-N-SH. Conditions: for IC50: Homo sapiens, SK-N-SH. The format is cell-based.
The next experiment relates to rat glioblastoma (C6). As to the kind of experiment: cell viability, glioma C6. Type of experiment: cell-based.
For experiment [6], the system named is human prostate cancer PC-3. As to the kind of experiment: cell viability, prostate PC-3. Type of experiment: cell-based. Conditions: Table 1A, read-out: Viability IC50 Prostate PC3.
A further experiment has as its system Colon Ht-29. As to the kind of experiment: cell viability, colon Ht-29. The format is cell-based. Conditions: Homo sapiens, Table 1A.
The mark [7] stands for this setting: single determinations, read-out: IC50 HaCat I5.
The mark [8] stands for this setting: mean of the determinations, read-out: IC50 HaCat ME.
The mark [9] stands for this setting: single determinations, read-out: IC50 HaCat.
[10] abbreviates: Table 1B, read-out: Cell viability IC50 Prostate LN-Cap.
Where [11] appears, read: B16, Example 9, FIG. 9, read-out: IC50 levels, transformed (MDR) B16 melanoma.
[12] abbreviates: Table 1B, read-out: Cell viability IC50 Melanoma B16 MDR.
Setting [13] is: Example 9, read-out: IC50 levels, wild type B16 mouse melanoma.
The mark [14] stands for this setting: Table 1B, read-out: Cell viability IC50 Melanoma 16B.
Where [15] appears, read: Table 1B, read-out: Cell viability IC50 Neuroblastoma SH-SY5T.
Setting [16] is: Homo sapiens, HaCaT, mean of the determinations, read-out: IC50 HaCat I5 ME.
[17] abbreviates: Homo sapiens, HaCaT, single determinations, read-out: IC50 HaCat I5.
The mark [18] stands for this setting: Table 1A, read-out: Viability IC50 Melanoma B16.
[19] abbreviates: Table 1A, read-out: Viability IC50 Neuroblastoma SH-SY5T.

Several values for one entry are separate records, joined by “and”; a condition that tells them apart may be missing. Equal entries are not always repeated. Where two headings read alike, the source gives them in different places. A value given as a limit tells only on which side of the number the result lay.

Turning to `CN(C)CCCN1c2ccccc2CCc2ccc(Cl)cc21` [Clomipramine], the IC50 with HaCat I5 keratinocytes (setting [7]) is 31 µM and 24 µM; in the experiment on mouse lung sarcoma (3LL), less than 10 µM; in the experiment on HaCat keratinocytes (setting [8]), 20 µM; in the experiment on HaCat keratinocytes (setting [9]), 20 µM; in experiment [1] (setting [10]) it was 22 µM; in [2] (setting [11]), 15 to 20 µM. Moreover, the IC50 in [2] (setting [12]) was 36 µM; in the experiment with mouse melanoma (B-16) (setting [13]), 15 to 20 µM; in the experiment on mouse melanoma (B-16) (setting [14]), 20 µM; in the experiment on different cell-lines (read-out: IC50 Mean +/− SD), 19.8 µM; in experiment [3] (setting [15]) it was 21 µM; in [4] it was 16 µM.

For `CN1CCN(C2=Nc3cc(Cl)ccc3Nc3ccccc32)CC1` [Clozapine], the IC50 is greater than 100 µM in the experiment with HaCat I5 keratinocytes (setting [16]); greater than 100 µM in the experiment with HaCat I5 keratinocytes (setting [17]); 33 µM in the experiment on mouse lung sarcoma (3LL); greater than 100 µM with HaCat keratinocytes (setting [8]); greater than 100 µM in the experiment on HaCat keratinocytes (setting [9]); 42 µM in experiment [1] (setting [10]). Besides, the IC50 worked out at 35 µM in [2] (setting [12]); 32 µM with mouse melanoma (B-16) (setting [14]); 36 µM in the experiment with different cell-lines (read-out: IC50 Mean +/− SD); 74 µM in experiment [3] (setting [15]); 73 µM in [4].

On to `CN(C)CCC=C1c2ccccc2COc2ccccc21` [Doxepin], for which the IC50 in the experiment on HaCat I5 keratinocytes (setting [16]) came out at 62 µM; in the experiment on HaCat I5 keratinocytes (setting [17]) it was 62 µM; with mouse melanoma (B-16) (setting [14]) it was 76 µM; in the experiment with different cell-lines (read-out: IC50 Mean +/− SD), 76 µM; in experiment [4], 48 µM.

Consider `CNCCC(Oc1ccc(C(F)(F)F)cc1)c1ccccc1` (stereo not drawn) [Fluoxetine], for which the IC50 with HaCat I5 keratinocytes (setting [16]) is 20 µM; in the experiment with HaCat I5 keratinocytes (setting [17]), 20 µM; with mouse lung sarcoma (3LL) it was less than 10 µM; in experiment [1] (setting [10]), 17 µM; in experiment [2] (setting [11]), 15 to 20 µM; in experiment [2] (setting [12]) it was 14 µM. In addition, the IC50 is 15 to 20 µM with mouse melanoma (B-16) (setting [13]), 14 µM in the experiment with mouse melanoma (B-16) (setting [14]), 14.1 µM in the experiment on different cell-lines (read-out: IC50 Mean +/− SD) and 13 µM in [4].

For the compound `OCCN1CCN(CCCN2c3ccccc3Sc3ccc(C(F)(F)F)cc32)CC1` [Fluphenazine], the IC50 with HaCat I5 keratinocytes (setting [16]) came out at 22 µM; in the experiment with HaCat I5 keratinocytes (setting [17]) it was 26 µM; in the experiment with HaCat I5 keratinocytes (setting [7]) it was 18 µM; in the experiment on HaCat keratinocytes (setting [8]), 19 µM; with HaCat keratinocytes (setting [9]) it was 16 µM; in the experiment with mouse melanoma (B-16) (setting [18]) it was 18 µM. The IC50 was 21 µM in experiment [5] (Table 1A), 18.5 ± 2.2 µM with different cell-lines (read-out: IC50 Mean ± SD), 15 µM in experiment [3] (setting [19]) and 20 µM in the experiment with rat glioblastoma (C6) (Table 1A).

With `O=C(CCCN1CCC(O)(c2ccc(Cl)cc2)CC1)c1ccc(F)cc1` [Haloperidol], the IC50 in experiment [5] (Table 1C) was no less than 100 µM; in experiment [3] (Table 1C, read-out: Viability IC50 Neuroblastoma SH-SY5T), greater than 100 µM; in the experiment with rat glioblastoma (C6) (Table 1C), no less than 100 µM.

Regarding `CN1CCN2c3ccccc3Cc3ccccc3C2C1` (stereo not drawn) [Mianserin], the “Viability IC50 Prostate LN-CapAp” value in experiment [1] (Table 1C) was “Non Toxic”. Also, the “Viability IC50 Neuroblastoma SH-SY5T” value in [3] (Table 1C) was “Non Toxic”.

For `Cc1nc2n(c(=O)c1CCN1CCC(c3noc4cc(F)ccc34)CC1)CCCC2` [Risperidone], the “Viability IC50 Melanoma B16” value in the experiment on mouse melanoma (B-16) (Table 1C) was “Non Toxic”. Also, the “Viability IC50 Neuroblastoma SK-N-SH” value in experiment [5] (Table 1C) is on record as “Non Toxic”. For the same compound, in experiment [3] (Table 1C), the “Viability IC50 Neuroblastoma SH-SY5T” value is given as “Non Toxic”.

Take `CSc1ccc2c(c1)N(CCC1CCCCN1C)c1ccccc1S2` (stereo not drawn) [Thioridazine]: the IC50 came out at 14 µM with HaCat I5 keratinocytes (setting [16]); 13 µM in the experiment with HaCat I5 keratinocytes (setting [17]); 15 µM with HaCat I5 keratinocytes (setting [7]); 11.5 µM in the experiment on HaCat keratinocytes (setting [8]); 9 µM in the experiment with HaCat keratinocytes (setting [9]); 14 µM in experiment [1] (Table 1A, read-out: Viability IC50 Prostate LN-Cap). Moreover, the IC50 with mouse melanoma (B-16) (setting [18]) came out at 16 µM; in [5] (Table 1A) it was 15 µM; in the experiment on different cell-lines (read-out: IC50 Mean ± SD), 16.5 ± 4.1 µM; in experiment [3] (setting [19]) it was 11 µM; with rat glioblastoma (C6) (Table 1A), 13 µM; in experiment [6], 24 µM. In the experiment on Colon Ht-29, this compound displayed an IC50 of 19 µM.

(Values after US20040029860A1, “Anti-proliferative drugs” (priority 2000, published 2004).)
